Source: article PMC4336329 (PLoS ONE, 2015)
Hit rate of the full screen: of about 310,000 compounds, about 14,000 (4.5%) showed an effect of 50% or more. Effects have a minus sign here. This is one part of the list.

Each molecule was assayed against human ether-à-go-go-related gene (hERG) potassium channel (human, UniProt Q12809) (assay: primary screen, population patch clamp on CHO cells stably expressing hERG).
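Also: peak tail current of the secondary pulse compared with the same well before compound.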

human ether-à-go-go-related gene (hERG) potassium channel, sequence (Q12809 whole entry, looked up): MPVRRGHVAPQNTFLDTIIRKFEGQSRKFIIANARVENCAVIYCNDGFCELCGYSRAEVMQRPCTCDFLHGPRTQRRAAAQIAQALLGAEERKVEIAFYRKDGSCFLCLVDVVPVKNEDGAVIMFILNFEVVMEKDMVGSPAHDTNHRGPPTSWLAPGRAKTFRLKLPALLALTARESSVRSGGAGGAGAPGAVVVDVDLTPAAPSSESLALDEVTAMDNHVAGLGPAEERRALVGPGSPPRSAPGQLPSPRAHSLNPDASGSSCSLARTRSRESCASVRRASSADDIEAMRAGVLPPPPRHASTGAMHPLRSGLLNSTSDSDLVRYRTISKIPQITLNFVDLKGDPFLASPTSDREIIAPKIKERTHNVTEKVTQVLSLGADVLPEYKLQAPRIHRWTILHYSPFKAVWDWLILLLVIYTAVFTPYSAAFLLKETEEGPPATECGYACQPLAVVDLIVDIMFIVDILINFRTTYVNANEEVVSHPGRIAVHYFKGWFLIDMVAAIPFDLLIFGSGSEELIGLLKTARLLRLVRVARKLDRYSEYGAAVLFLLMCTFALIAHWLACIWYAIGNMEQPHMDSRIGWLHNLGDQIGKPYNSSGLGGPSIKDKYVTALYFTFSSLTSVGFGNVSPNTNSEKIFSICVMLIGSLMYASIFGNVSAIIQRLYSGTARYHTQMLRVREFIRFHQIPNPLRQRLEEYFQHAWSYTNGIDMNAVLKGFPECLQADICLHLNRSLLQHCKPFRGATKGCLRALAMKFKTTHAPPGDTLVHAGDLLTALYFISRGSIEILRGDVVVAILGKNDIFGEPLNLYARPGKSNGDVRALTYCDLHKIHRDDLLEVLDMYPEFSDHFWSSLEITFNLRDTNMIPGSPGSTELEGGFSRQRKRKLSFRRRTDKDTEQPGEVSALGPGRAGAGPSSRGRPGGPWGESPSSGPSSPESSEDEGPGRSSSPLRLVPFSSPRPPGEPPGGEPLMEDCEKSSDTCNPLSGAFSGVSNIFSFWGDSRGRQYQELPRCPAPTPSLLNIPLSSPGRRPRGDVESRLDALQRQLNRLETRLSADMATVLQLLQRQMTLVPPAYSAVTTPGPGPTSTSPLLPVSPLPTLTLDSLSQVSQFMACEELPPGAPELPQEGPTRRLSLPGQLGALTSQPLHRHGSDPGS

| SMILES | hERG current change (%, negative = inhibition) at 10uM |
| --- | --- |
| CCC1CCCCN1C(=O)c1sc2ncnc(N(CC)CC)c2c1C (centres unmarked) | -16.7% |
| O=C(COC(=O)c1cccc([N+](=O)[O-])c1)NCc1cccs1 | 10% |
| O=C(Nn1c(-c2ccncc2)nc2ccccc2c1=O)c1ccccc1Br | 5.54% |
| Cc1nc2ncnn2c(C)c1Cc1ccccc1Cl | -3.23% |
| CC(=O)Nc1ccccc1OCC(=O)NC(C)c1ccc(F)cc1 (centres unmarked) | -0.0484% |
| CC(C)COC(=O)C1C2C=CC3(CN(C(C)c4ccc(Br)cc4)C(=O)C13)O2 (centres unmarked) | -21.4% |
| CC1(C)OC2OC(C(=O)N/N=C/c3ccccc3F)C3OC(C)(C)OC3C2O1 (centres unmarked) | 20.2% |
| Cn1c(NC(=O)c2ccc(S(=O)(=O)N3CCCCC3)cc2)cc(=O)n(C)c1=O | -2.39% |
| Cc1ccc(/C=N/NC(=O)NN(C)c2ncc(C(F)(F)F)cc2Cl)cc1 | -3.09% |
| CCCC1Cc2nc(N3CCCCC3)c(C#N)cc2CO1 (centres unmarked) | -27.6% |
| O=[N+]([O-])C(=C1Nc2ccccc2N1)/C(Cl)=C(/Cl)Br | 19.8% |
| COc1ccc(CC(=O)N/N=C(\C)c2cccs2)cc1 | 12.7% |
| Cc1cc(C)cc(SCc2noc(C(=O)NCCC(C)C)c2C(=O)NCCC(C)C)c1 | 4.93% |
| COC(=O)C1=CN(Cc2cccs2)C=C(C(=O)OC)C1c1cccc(OC)c1OC | -4.95% |
| COc1ccccc1C1CCN(C(=S)Nc2ccc(Br)cc2)CC1 | 0.164% |
| N#Cc1nc(COc2ccccc2)oc1N1CCOCC1 | -19.6% |
| C[C@@H](C(=O)OCC(=O)Nc1cc(S(=O)(=O)N2CCOCC2)ccc1Cl)N1C(=O)C2CCCCC2C1=O (some centres unmarked) | -28.5% |
| CCN(CC)S(=O)(=O)c1ccc(C(=O)Oc2coc(CSc3nc(C)cc(C)n3)cc2=O)cc1 | -14.8% |
| Clc1ccc2c(c1)c1cc(Cl)ccc1n2CN1CCOCC1 | -1.99% |

| SMILES | hERG current change (%, negative = inhibition) at 10uM |
| --- | --- |
| O=C(NNC(=O)c1ccc(Cl)c(Cl)c1)c1ccncc1 | 9.8% |
| COc1cccc(NC(=O)Nc2ccc3c(c2)nc(C)n3C)c1 | -25.2% |
| CNS(=O)(=O)c1cccc(C(=O)OCC(=O)Nc2ccc(N3CCCCC3)cc2)c1 | 13.6% |
| CCn1ncc(Br)c1C(=O)Nc1ccccc1C(F)(F)F | 3.66% |
| COC(=O)c1cnn(-c2ccccc2)c1/C=N/NC(=S)Nc1ccc(Cl)cc1 | 17.9% |
| COc1cccc(C2N(c3ccc(Cl)cc3)C(=O)C3CCCN32)c1 (centres unmarked) | -3.84% |
| C=CCNC(=O)c1c(N)n(-c2ccc3c(c2)OCO3)c2nc3ccccc3nc12 | 28.7% |
| c1ccc2c(N3CCOCC3)nc(-c3ccncc3)nc2c1 | -31.3% |
| CCOC(=O)c1c(C)n(Cc2ccccc2)c2ccc(OCC(O)Cn3nc(C)nc3C)cc12 (centres unmarked) | -13.9% |
| C(=N\Nc1nccc(-c2cccnc2)n1)/c1ccccc1 | -15.1% |
| CCN(Cc1ccccc1OC)CC1CCCN(CCc2cccc(OC)c2)C1 (centres unmarked) | -43.6% |
| CCC(CC)c1nnc(NC(=O)c2nn(C)c(=O)c3ccccc23)s1 | 5.58% |
| O=c1[nH]c2ccccc2nc1/C=C/c1ccc(F)cc1 | 6.4% |
| CCOC(=O)c1cccc(NC(=O)CCNS(=O)(=O)c2cccc3nonc23)c1 | -12.9% |
| COC(=O)CSc1nnc(NC(=O)c2ccc3c(c2)OCO3)s1 | -14.7% |
| COc1ccccc1-c1cn[nH]c1-c1ccc(O)cc1O | 11.2% |
| O=C(COc1ccc(C(=O)c2ccccc2)cc1)Nc1ncccc1O | 8.32% |
| COc1ccccc1NCC(=O)Nc1cc(S(=O)(=O)N2CCOCC2)ccc1N1CCOCC1 | -18.3% |
| O=C(CN(c1ccccc1)S(=O)(=O)c1ccc(Cl)cc1)Nc1cccnc1 | -34.2% |

| SMILES | hERG current change (%, negative = inhibition) at 10uM |
| --- | --- |
| COC(=O)Nc1ccc2ncn(C)c(=O)c2c1 | 10.5% |
| COc1ccc([N+](=O)[O-])cc1NC(=O)Cn1ccc(C(F)(F)F)n1 | 13.3% |
| CCC1Oc2ccc(C)cc2N(CC(=O)NCCCN2CCN(Cc3ccccc3)CC2)C1=O (centres unmarked) | -53.9% |
| NS(=O)(=O)c1ccc(NC(=S)NC(=O)c2ccc(-c3ccccc3)cc2)cc1 | 1.17% |
| Cc1cc(S(=O)(=O)NCC2CCCO2)c(C)cc1Br (centres unmarked) | 9.84% |
| COc1ccc(NC(=O)CN2CCN(c3ccc(Cl)cc3)CC2)c(OC)c1 | -12.7% |
| Cn1cc(C(=O)C(=O)N2CCCc3ccccc32)c2ccccc21 | 8.92% |
| Cc1nc(N2CCN(Cc3ccc(Cl)cc3)CC2)c2oc3ccccc3c2n1 | -19.3% |
| O=C1CC(N2CCC(c3nc4ccccc4s3)CC2)C(=O)N1 (centres unmarked) | -27.3% |
| CC(C(=O)O)C(=O)O | 30.5% |
| CN(C)c1ccc(-n2cccc2/C=C/[N+](=O)[O-])cc1 | 20.2% |
| CC(=O)Nc1ccc(S(=O)(=O)NCCNC(=O)c2ccccc2F)cc1 | 1.99% |
| CCOc1ccc(NC(=O)CCN2C(=O)c3ccccc3C2=O)cc1 | -7.96% |
| COc1ccc(S(=O)(=O)n2c(CCN3CCOCC3)nc3ccccc32)cc1 | -59.2% |
| Cc1ccc(C2C(C#N)=C(N)Oc3n[nH]c(-c4cccnc4)c32)o1 (centres unmarked) | 22.2% |
| CCCCNC(c1ccccc1)c1ccncc1 (centres unmarked) | 5.77% |
| COc1cc(CNC(=O)CCn2nc(C)c3c(C)n(-c4ccccc4)nc3c2=O)cc(OC)c1OC | 12% |
| Cc1onc(-c2ccccc2)c1C(=O)NC(=S)NNC(=O)c1ccc(O)cc1 | 14.4% |
